# Among all 91,000 compounds or so, about 290 (0.32%) were called active. This list was built around the results that the source calls inconclusive (neither active nor inactive); the mix of calls is not that of the screen. Calls follow the shape of the dose curve; as a rule, active = well fitted inhibition curve with a large enough effect; inconclusive = small, poorly fitted or top-dose-only effect; inactive = no such curve, though single readings can be large or run the other way. A potency beside an inconclusive call is a rough fit, not a confirmed value.
# Target: Single-stranded DNA cytosine deaminase (Homo sapiens) (UniProt Q9GZX7)
# Chain of UniProt Q9GZX7 (Q9GZX7 whole entry, looked up): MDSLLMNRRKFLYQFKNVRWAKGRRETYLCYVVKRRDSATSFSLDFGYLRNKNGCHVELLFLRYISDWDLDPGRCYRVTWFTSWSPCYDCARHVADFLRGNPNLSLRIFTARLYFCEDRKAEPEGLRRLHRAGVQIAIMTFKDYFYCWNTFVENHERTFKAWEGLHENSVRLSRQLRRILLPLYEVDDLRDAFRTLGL
# Assay: Primary qHTS assay for inhibitors of Activation Induced Cytidine Deaminase (AID): AID signal; also: nearly all actives have a fitted effect of over 25% in size
# Details: AID deamination FRET fluorescence, UDG-coupled, 4 h; series mostly up to 115 µM
# Potency is read from the fitted curve at half-maximal effect; tags tell the direction and shape of the fitted curve.
row,SMILES,Potency
1,CNC(=O)c1ccc2c(c1)OCC(=O)N2,inactive
2,ClC(Cl)(Cl)C1c2ccccc2Nc2ccccc21,inactive
3,CC(C)CN(C(=O)CN1c2ccccc2CC1C)c1c(N)n(Cc2ccccc2)c(=O)[nH]c1=O (stereo unspecified),inactive
4,Cn1c(=O)c2c(-c3ccc(Br)cc3)n(Cc3ccc(F)cc3)cc2n(C)c1=O,"inconclusive: 28.2 µM [inhibitor, full curve, poor fit]"
5,O=C(O)c1c(-c2ccccc2)oc2ccc(OCc3c(F)cccc3Cl)cc12,active: 79.4 µM
6,COc1cccc(C(=O)Nc2cccc(-c3nc4ncccn4c3C)c2)c1,inactive
7,O=C(CSc1nccn1-c1cccc(Cl)c1)Nc1cccc2ccccc12,"inconclusive: 39.8 µM [inhibitor, full curve, poor fit]"
8,COc1ccc(C)cc1-n1cnc2cc(C(=O)NC3CCCCCC3)ccc21,"inconclusive: 17.8 µM [inhibitor, full curve, poor fit]"
9,Cn1c(SCC(=O)Nc2nc3ccccc3s2)ncc(C(=O)Nc2ccccc2)c1=O,"inconclusive: 89.1 µM [inhibitor, single point]"
10,Cc1ccc(-c2nc3c4ccccc4n(CC(=O)NCc4ccc(F)cc4)c(=O)n3n2)cc1,"inconclusive: 89.1 µM [inhibitor, single point]"
11,O=c1c2ccccc2n(Cc2c(F)cccc2Cl)c(=O)n1CCc1ccccc1,inactive
12,S=C(NCCSc1ccc(Cl)cc1)Nc1ccccc1,inactive
13,CC1CCN(S(=O)(=O)c2ccc3c(ccc(=O)n3CC(=O)NCc3ccccc3Cl)c2)CC1,"inconclusive: 70.8 µM [inhibitor, partial curve, poor fit]"
14,Cc1ccsc1CN(C(=O)COc1ccc(Cl)cc1)C1CCS(=O)(=O)C1 (stereo unspecified),"inconclusive: 89.1 µM [inhibitor, single point]"
15,CCCCn1c(SCC(=O)c2ccc(Cl)cc2)nc2c1c(=O)[nH]c(=O)n2C,inactive
16,NC(=O)c1cc(S(=O)(=O)NCC2CCC(C(=O)Nc3ccc(Cl)cc3)CC2)cs1 (stereo unspecified),"inconclusive: 89.1 µM [inhibitor, single point]"
17,NOCC(=O)O,inactive
18,CCc1cccc2c(C(=O)C(=O)NCc3ccc(OC)cc3)c[nH]c12,inactive
19,COc1ccc(N(C(=O)c2cccs2)S(=O)(=O)c2ccc3c(c2)n(C)c(=O)n3C)cc1,"inconclusive: 63.1 µM [inhibitor, partial curve, poor fit]"
20,O=C(CN1CCOCC1)N1CCCN(S(=O)(=O)c2ccccc2)C1c1ccccc1 (stereo unspecified),inactive
21,O=C(Nc1ccc(Cl)c(Cl)c1)N1CCC(c2ccccc2)C1 (stereo unspecified),"inconclusive: 15.8 µM [inhibitor, full curve, poor fit]"
22,Cc1ccccc1C(C)NC(=O)c1ccc2c(c1)NC(=O)CS2 (stereo unspecified),inactive

row,SMILES,Potency
1,CC(C)CCNC(=O)CSCc1cnn(-c2ccccc2)c1-n1cccc1,"inconclusive: 100 µM [inhibitor, single point]"
2,COc1ccc2cc(C(=O)Nc3ccc(Nc4ccccc4)cc3)[nH]c2c1,inactive
3,COc1cccc(-c2nc(/C=C(/CCC(=O)O)c3nc4ccccc4s3)cs2)c1,"inconclusive: 50.1 µM [inhibitor, partial curve, poor fit]"
4,COc1ccc(OC)c(-c2noc(CSc3nnc(Cc4ccccc4)n3-c3cccc(C)c3)n2)c1,"inconclusive: 50.1 µM [inhibitor, partial curve, poor fit]"
5,COc1ccc(C(=O)N2CCc3cc(OC)c(OC)cc3C2COc2ccccc2OC)cc1 (stereo unspecified),"inconclusive: 56.2 µM [inhibitor, partial curve, poor fit]"
6,Cc1ccc(-c2cc(C(=O)N(Cc3ccccc3)Cc3ccco3)no2)cc1F,"inconclusive: 25.1 µM [inhibitor, full curve]"
7,CCCCCCCc1c(C(=O)O)c2ccccc2c2ccccc12,inactive
8,O=C(CN1CCN(c2nc(-c3cccs3)nc3scc(-c4ccccc4)c23)CC1)N1CCCC1,"inconclusive: 79.4 µM [inhibitor, partial curve, poor fit]"
9,Cc1cccc(NC(=O)CN(C)S(=O)(=O)c2ccc3c(c2)c(=O)n(C)c(=O)n3C)c1,inactive
10,COc1ccc(-c2nc3ccccc3n2Cc2ccc(Cl)cc2)cc1,active: 44.7 µM
11,Cc1ccc(Cl)cc1N1CCN(CCCNc2ncnc3onc(-c4ccc(F)cc4)c23)CC1,"inconclusive: 56.2 µM [inhibitor, single point]"
12,O=c1[nH]c(=O)n(CCc2ccccc2)c2c1C(C(F)(F)F)(C(F)(F)F)N=C(c1ccco1)N2,inactive
13,COc1ccc(N2CC3=C(C2=O)C(c2ccc(Br)cc2)NC(=O)N3C)cc1 (stereo unspecified),"inconclusive: 25.1 µM [inhibitor, full curve, poor fit]"
14,COc1ccc(C(=O)c2cccc(C(=O)c3ccc(OC)cc3)c2)cc1,"inconclusive: 79.4 µM [inhibitor, partial curve, poor fit]"
15,Nc1nnnn1NCc1ccc(-c2cccc(Cl)c2)o1,inactive
16,Cc1ccccc1C(=O)NCC(c1cccnc1)N1CCc2ccccc21 (stereo unspecified),"inconclusive: 112 µM [inhibitor, partial curve, poor fit]"
17,CCOC(=O)c1c(C)oc2nc(C)nc(NCc3ccc(C)cc3)c12,"inconclusive: 28.2 µM [inhibitor, partial curve, poor fit]"
18,O=C(NCCC1=CCCCC1)c1ccc2c(c1)N(Cc1ccc(F)cc1)C(=O)c1ccccc1S2(=O)=O,"inconclusive: 11.2 µM [inhibitor, full curve, poor fit]"
19,CCOC(=O)c1c(NC(=O)C(C)Sc2cn(CCNC(=O)c3ccc(OC)c(OC)c3)c3ccccc23)sc2c1CCC2 (stereo unspecified),"inconclusive: 35.5 µM [inhibitor, partial curve, poor fit]"
20,COc1ccccc1/C=C(/C#N)C(=O)c1c(Cl)cccc1Cl,inactive
21,Nc1c(C(=O)Nc2cccc(Cl)c2)sc2nc3c(cc12)CN(Cc1ccccc1)CC3,inactive
22,Oc1ccccc1C=NCCOCCN=Cc1ccccc1O,inactive

row,SMILES,Potency
1,O=C(Cn1c(NCc2ccccc2)nc2ccccc21)N1CCN(c2ccccc2)CC1,inactive
2,CCn1cc(C(=O)NCc2ccccc2)c(=O)c2cc(S(=O)(=O)N3CCCCC3)ccc21,"inconclusive: 28.2 µM [inhibitor, single point]"
3,Cc1ccc(CSC2=Nc3ccccc3C3=NC(CC(=O)NC4CCCCC4)C(=O)N23)c(C)c1 (stereo unspecified),inactive
4,Cc1cccc(N2CCN(C(=O)c3nn(C)c4c3CSc3ccccc3-4)CC2C)c1 (stereo unspecified),"inconclusive: 31.6 µM [inhibitor, partial curve, poor fit]"
5,Cc1cc2c(cc3c(SCc4ccc(Cl)cc4)nnc(C)n32)o1,"inconclusive: 56.2 µM [inhibitor, partial curve, poor fit]"
6,COc1cccc(C2NC(=O)NC(C)=C2C(=O)c2ccc(Cl)cc2)c1 (stereo unspecified),"inconclusive: 39.8 µM [inhibitor, partial curve, poor fit]"
7,Cc1ccc(-c2nc3sccn3c2Nc2ccccc2C)cc1,"inconclusive: 35.5 µM [inhibitor, full curve, poor fit]"
8,COc1cccc(CNC(=O)C(C)n2ccc3cc(S(=O)(=O)N4CCCCCC4)ccc32)c1 (stereo unspecified),"inconclusive: 79.4 µM [inhibitor, partial curve, poor fit]"
9,COc1ccc(-c2nn(C)c3sc(C(=O)N4CCN(c5ccccc5F)CC4)cc23)cc1OC,"inconclusive: 39.8 µM [inhibitor, full curve]"
10,COC(=O)c1ccccc1NC(=O)CSc1nnc(-c2ccc(Cl)cc2)n1Cc1ccco1,inactive
11,COc1ccc(C(=O)/C=C/c2ccccc2C(F)(F)F)cc1F,"inconclusive: 89.1 µM [inhibitor, partial curve, poor fit]"
12,Cc1ccc(-c2nnc(Nc3ccc(Cl)cc3)c3ccccc23)cc1S(=O)(=O)N1CCOCC1,"inconclusive: 31.6 µM [inhibitor, single point]"
13,CN(C(=O)c1ccc2c(c1)N(Cc1ccccc1F)C(=O)c1ccccc1S2)C1CCCCC1,"inconclusive: 39.8 µM [inhibitor, full curve, poor fit]"
14,COc1ccccc1N1CCN(c2nc3ccc(C)cc3nc2-n2nc(C)cc2C)CC1,"inconclusive: 25.1 µM [inhibitor, partial curve, poor fit]"
15,CCOC(=O)c1sc(N)c(C#N)c1CSCc1ccccc1,inactive
16,COc1ccccc1NC(=O)CCn1nc(-c2ccccc2)c2ccccc2c1=O,"inconclusive: 50.1 µM [inhibitor, partial curve, poor fit]"
17,CCc1ccc(OCC(=O)N(Cc2ccco2)Cc2ccco2)cc1,"inconclusive: 56.2 µM [inhibitor, partial curve, poor fit]"
18,CCc1ccc(NC(=O)CSc2nc(-c3ccccc3)c(C#N)c(=O)[nH]2)cc1,"inconclusive: 56.2 µM [inhibitor, partial curve, poor fit]"
19,COc1cccc(CNC(=O)Cn2cc3c(n2)-c2c(oc(C(=O)N4CCCC4)c2C)CC3)c1,"inconclusive: 100 µM [inhibitor, single point]"
20,CCCCCCOc1ccc(CNc2cccc3ccccc23)cc1,"inconclusive: 50.1 µM [inhibitor, partial curve, poor fit]"
21,O=c1oc2cc(OCc3nn[nH]n3)ccc2cc1-c1ccc2ccccc2c1,inactive
22,Cc1nn(Cc2ccc(Cl)cc2)c(C)c1NC(=O)c1noc2c1CCc1ccccc1-2,"inconclusive: 89.1 µM [inhibitor, single point]"

# — PubChem BioAssay AID1347428 (National Center for Advancing Translational Sciences (NCATS), 2020)
